{
  "source": "PubChem BioAssay AID1345082",
  "about": "(National Center for Advancing Translational Sciences (NCATS), 2018)",
  "note": "The campaign covered roughly 94,000 compounds. About 4,000 (4.3%) were called active. The inconclusive results got no clear call from the source; some entries with a clear call stand among them for comparison. The call rests on the fitted dose curve; in most records, active means well fitted inhibition curve with a large enough effect; inconclusive means small, poorly fitted or top-dose-only effect; inactive means no such curve, though single readings can be large or run the other way. Potencies of inconclusive entries are doubtful fits and often do not repeat. Potency means the concentration at half of the fitted maximal effect; tags describe the fitted curve by direction and shape.",
  "data": [
    {"assay": "Cytotoxic Profiling in NIH 3T3 Cell Line of Diverse Libraries Using Quantitative High-Throughput Screening; further: nearly all actives have a fitted effect of over 55% in size", "conditions": "NIH 3T3 viability, CellTiter-Glo ATP luminescence, 48-72 h; series mostly up to 96.7 µM", "procedure,_shortened": "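First NIH 3T3 cells are plated at 400 cells/well; next compound is pinned in; then plates incubate 48 or 72 hr at 37 °C; finally CellTiter-Glo is added and luminescence read after 10 min.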", "values": [
      {"smiles": "CCCc1cc(N2CCC(NCCOC(C)C)CC2)nc(C)n1", "Potency": "inactive"},
      {"smiles": "Cc1ccccc1-c1ccc2c(n1)CN(Cc1ccccc1)C(=O)CO2", "Potency": "inconclusive: 89.1 µM [inhibitor, partial curve]"},
      {"smiles": "CC(C)n1nc(OC(C)(C)C(=O)NC2CCC(O)CC2)c2cc(CN3CCOCC3)ccc21", "note": "(centres undefined)", "Potency": "inconclusive: 50.1 µM [inhibitor, partial curve, poor fit]"},
      {"smiles": "O=C(CNC(=O)c1ccc(-c2cccc(C(F)(F)F)c2)cc1)NCc1cccc(Cl)c1", "Potency": "inactive"},
      {"smiles": "CSc1cccc(NC(=O)N2C[C@H](c3nc(-c4ccccc4)no3)[C@@H](C)C2)c1", "Potency": "inconclusive: 44.7 µM [inhibitor, partial curve, poor fit]"},
      {"smiles": "NC1CCCCN(Cc2ccc(Cl)c(F)c2)C1", "note": "(centres undefined)", "Potency": "inconclusive: 79.4 µM [inhibitor, partial curve, poor fit]"},
      {"smiles": "CN(C)CCNC(=O)C(C)(C)Oc1nn(CCOc2ccccc2)c2ccccc12", "Potency": "active: 25.1 µM"},
      {"smiles": "COc1ccccc1-c1cccc(C(=O)N2CCN([S+](=O)([O-])c3ccc(C)cc3)CC2)c1", "Potency": "inconclusive: 12.6 µM [inhibitor, full curve]"},
      {"smiles": "Cc1nnc2ccc(N3CCN(C(=O)c4ccc(F)cc4)CC3)nn12", "Potency": "inconclusive: 89.1 µM [inhibitor, partial curve, poor fit]"},
      {"smiles": "CN(Cc1cccn1C)CC1CCCCC1", "Potency": "inactive"},
      {"smiles": "COc1ccc2nc([C@H]3CCN(C4CCCCC4)C3)[nH]c2c1", "Potency": "inconclusive: 112 µM [inhibitor, single point]"},
      {"smiles": "O=C(C1CCCO1)N1CCc2c(n(Cc3cccnc3)n(-c3ccccc3)c2=O)C1", "note": "(centres undefined)", "Potency": "inconclusive: 89.1 µM [inhibitor, partial curve, poor fit]"},
      {"smiles": "CCCN(C)c1nccnc1OC1CCN(C(=O)C2CCC2)C1", "note": "(centres undefined)", "Potency": "inconclusive: 70.8 µM [inhibitor, partial curve, poor fit]"},
      {"smiles": "O=C1Cc2c(-c3ccsc3)n[nH]c2CN1CC1CC1", "Potency": "inconclusive: 112 µM [inhibitor, single point]"},
      {"smiles": "c1ccc2c(c1)CCN2C1CN(CC2CCCCC2)C1", "Potency": "inconclusive: 25.1 µM [inhibitor, partial curve, poor fit]"},
      {"smiles": "CCCS(=O)(=O)N1CCC(F)(c2nc(CCOC)no2)CC1", "Potency": "inactive"},
      {"smiles": "COC(=O)C(=O)N1CC[C@H]2NC(=O)N(c3ccc(C(C)C)cc3)C(=O)[C@H]21", "Potency": "inactive"},
      {"smiles": "COCCN1CCOc2nc(-c3cc(F)ccc3OC)ncc2C1=O", "Potency": "inconclusive: 100 µM [inhibitor, partial curve, poor fit]"},
      {"smiles": "COc1ccccc1Nc1cnc2ccc(N(C)Cc3cccnc3)nn12", "Potency": "inconclusive: 28.2 µM [inhibitor, partial curve, poor fit]"}
    ]}
  ]
}
